# Over roughly 2,900 compounds, “IRF Lucia reporter activity, fold change vs agonist alone” has its median near 0.9; the highest 2% begin near 2.8. Some of the results follow.
# Experiments:
# RAW-Dual [1] = experiment: IRF Lucia reporter activity, fold change vs agonist alone; cytotoxicity flag (confluency mask): not cytotoxic; higher = enhanced IRF activity
# In short: (§1)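 Reporter activity is given as fold change relative to agonist-alone wells. To measure it, 50 nL of library stock was pin-tooled onto RAW-Dual macrophages (50,000 cells/well, DMEM, 384-well plates), a PRR agonist followed 1 h later, and cells stayed at 37 °C, 5% CO2. Twenty hours on, supernatant was assayed for IRF (QuantiLuc luminescence) and NF-κB (QuantiBlue, 620 nm absorbance), and wells under 70% of agonist-control IncuCyte confluency in both mask sets were marked cytotoxic.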
# RAW-Dual [2] = experiment: IRF Lucia reporter activity, fold change vs agonist alone; higher = enhanced IRF activity; conditions: agonist: MPLA (TLR4) […]
# In short: as §1
# RAW-Dual [3] = experiment: IRF Lucia reporter activity, fold change vs agonist alone; cytotoxicity flag (confluency mask): cytotoxic (confluency <70% of control); higher = enhanced IRF activity
# In short: as §1
# [4] = agonist: 3'3'-cGAMP (STING) 10 ug/mL
# [5] = library stock concentration (final ~1000-fold dilution): 10 mM, cytotoxicity flag (confluency mask): cytotoxic (confluency <70% of control)
# [6] = library stock concentration (final ~1000-fold dilution): 10 mM, cytotoxicity flag (confluency mask): not cytotoxic
smiles,measurement,setting,value
CC(c1ccc2nccn2c1)n1nnc2ncc(-c3cnn(C)c3)nc21 (stereo not given) (library stock concentration (final ~1000-fold dilution): 10 mM),IRF Lucia reporter activity,RAW-Dual [1]; [4],0.953
same,IRF Lucia reporter activity,RAW-Dual [1]; agonist: LPS (TLR4) 0.1 ug/mL,1.15
COc1cc(O)cc(O)c1C(=O)C=Cc1ccccc1,IRF Lucia reporter activity,RAW-Dual [2]; [5],0.383
COc1cc(O)cc(O)c1C(=O)C=Cc1ccccc1 (library stock concentration (final ~1000-fold dilution): 10 mM),IRF Lucia reporter activity,RAW-Dual [3]; [4],0.0702
same,IRF Lucia reporter activity,RAW-Dual [3]; agonist: LPS (TLR4) 0.1 ug/mL,0.468
Cc1onc(-c2c(Cl)cccc2Cl)c1C(=O)NC1C(=O)N2C1SC(C)(C)C2C(=O)O (stereo not given),IRF Lucia reporter activity,RAW-Dual [2]; [6],0.977
Cc1onc(-c2c(Cl)cccc2Cl)c1C(=O)NC1C(=O)N2C1SC(C)(C)C2C(=O)O (stereo not given) (library stock concentration (final ~1000-fold dilution): 10 mM),IRF Lucia reporter activity,RAW-Dual [1]; [4],1.07
same,IRF Lucia reporter activity,RAW-Dual [1]; agonist: LPS (TLR4) 0.1 ug/mL,0.827
CCNC1CC(C)S(=O)(=O)c2sc(S(N)(=O)=O)cc21.Cl (stereo not given),IRF Lucia reporter activity,"RAW-Dual [2]; library stock concentration (final ~1000-fold dilution): 10 mM water, cytotoxicity flag (confluency mask): not cytotoxic",1.33
CCNC1CC(C)S(=O)(=O)c2sc(S(N)(=O)=O)cc21.Cl (stereo not given) (library stock concentration (final ~1000-fold dilution): 10 mM water),IRF Lucia reporter activity,RAW-Dual [1]; [4],0.944
same,IRF Lucia reporter activity,RAW-Dual [1]; agonist: LPS (TLR4) 0.1 ug/mL,0.763
O=c1cc(-c2ccc(O)cc2)oc2cc(O[C@@H]3O[C@H](CO)[C@@H](O)[C@H](O)[C@H]3O)cc(O)c12 (library stock concentration (final ~1000-fold dilution): 10 mM),IRF Lucia reporter activity,RAW-Dual [1]; [4],1.07
same,IRF Lucia reporter activity,RAW-Dual [1]; agonist: LPS (TLR4) 0.1 ug/mL,0.935
CNCc1ccc(-c2[nH]c3cc(F)cc4c3c2CCNC4=O)cc1,IRF Lucia reporter activity,RAW-Dual [2]; [6],0.291
CNCc1ccc(-c2[nH]c3cc(F)cc4c3c2CCNC4=O)cc1 (library stock concentration (final ~1000-fold dilution): 10 mM),IRF Lucia reporter activity,RAW-Dual [1]; [4],0.411
same,IRF Lucia reporter activity,RAW-Dual [1]; agonist: LPS (TLR4) 0.1 ug/mL,0.244
CCNC(=O)c1noc(-c2cc(C(C)C)c(O)cc2O)c1-c1ccc(CN2CCOCC2)cc1,IRF Lucia reporter activity,RAW-Dual [2]; [5],1.42
CCNC(=O)c1noc(-c2cc(C(C)C)c(O)cc2O)c1-c1ccc(CN2CCOCC2)cc1 (library stock concentration (final ~1000-fold dilution): 10 mM),IRF Lucia reporter activity,RAW-Dual [3]; [4],0.601
same,IRF Lucia reporter activity,RAW-Dual [3]; agonist: LPS (TLR4) 0.1 ug/mL,1.04
O=c1ncccn1C1OC(CO)C(O)C1O (stereo not given) (library stock concentration (final ~1000-fold dilution): 10 mM),IRF Lucia reporter activity,RAW-Dual [1]; [4],1.04
same,IRF Lucia reporter activity,RAW-Dual [1]; agonist: LPS (TLR4) 0.1 ug/mL,1.06
O=c1ncccn1C1OC(CO)C(O)C1O (stereo not given),IRF Lucia reporter activity,RAW-Dual [2]; [6],1.09
O=C(O)c1cc2cccc([N+](=O)[O-])c2[nH]1,IRF Lucia reporter activity,RAW-Dual [2]; [6],0.977
O=C(O)c1cc2cccc([N+](=O)[O-])c2[nH]1 (library stock concentration (final ~1000-fold dilution): 10 mM),IRF Lucia reporter activity,RAW-Dual [1]; [4],1.06
same,IRF Lucia reporter activity,RAW-Dual [1]; agonist: LPS (TLR4) 0.1 ug/mL,1.05
CC1CN(CC(Cc2ccccc2)C(=O)NCC(=O)O)CCC1(C)c1cccc(O)c1.O.O (stereo not given),IRF Lucia reporter activity,RAW-Dual [2]; [6],1.04
CC1CN(CC(Cc2ccccc2)C(=O)NCC(=O)O)CCC1(C)c1cccc(O)c1.O.O (stereo not given) (library stock concentration (final ~1000-fold dilution): 10 mM),IRF Lucia reporter activity,RAW-Dual [1]; [4],1.04
same,IRF Lucia reporter activity,RAW-Dual [1]; agonist: LPS (TLR4) 0.1 ug/mL,1.05
Cc1ccccc1C(OCCN(C)C)c1ccccc1.Cl (stereo not given),IRF Lucia reporter activity,RAW-Dual [2]; [6],0.916
Cc1ccccc1C(OCCN(C)C)c1ccccc1.Cl (stereo not given) (library stock concentration (final ~1000-fold dilution): 10 mM),IRF Lucia reporter activity,RAW-Dual [1]; [4],0.487
same,IRF Lucia reporter activity,RAW-Dual [1]; agonist: LPS (TLR4) 0.1 ug/mL,0.798
CCCCCCCCCCCCCCCC(=O)OCC(O)C1OC(O)=C(O)C1=O (stereo not given) (library stock concentration (final ~1000-fold dilution): 10 mM),IRF Lucia reporter activity,RAW-Dual [1]; [4],0.22
same,IRF Lucia reporter activity,RAW-Dual [1]; agonist: LPS (TLR4) 0.1 ug/mL,0.449
COc1cc(C(=O)NC2CCN(C)CC2)ccc1Nc1ncc2c(n1)N(C1CCCC1)CC(F)(F)C(=O)N2C,IRF Lucia reporter activity,RAW-Dual [2]; [5],0.17
COc1cc(C(=O)NC2CCN(C)CC2)ccc1Nc1ncc2c(n1)N(C1CCCC1)CC(F)(F)C(=O)N2C (library stock concentration (final ~1000-fold dilution): 10 mM),IRF Lucia reporter activity,RAW-Dual [3]; [4],0.134
same,IRF Lucia reporter activity,RAW-Dual [3]; agonist: LPS (TLR4) 0.1 ug/mL,0.178
O=C(NCc1cccc(O)c1)Nc1nc(-c2ccncc2)cs1 (library stock concentration (final ~1000-fold dilution): 10 mM),IRF Lucia reporter activity,RAW-Dual [1]; [4],0.113
same,IRF Lucia reporter activity,RAW-Dual [1]; agonist: LPS (TLR4) 0.1 ug/mL,0.231
O=C(NCc1cccc(O)c1)Nc1nc(-c2ccncc2)cs1,IRF Lucia reporter activity,RAW-Dual [2]; [6],0.108
COC(=O)CCc1ccc(OCC(O)CNC(C)C)cc1 (stereo not given) (library stock concentration (final ~1000-fold dilution): 10 mM),IRF Lucia reporter activity,RAW-Dual [1]; [4],0.884
same,IRF Lucia reporter activity,RAW-Dual [1]; agonist: LPS (TLR4) 0.1 ug/mL,0.262
COC(=O)CCc1ccc(OCC(O)CNC(C)C)cc1 (stereo not given),IRF Lucia reporter activity,RAW-Dual [2]; [6],1
CN1C(C(=O)Nc2ccccn2)=C(O)c2ccccc2S1(=O)=O,IRF Lucia reporter activity,RAW-Dual [2]; [6],0.974
CN1C(C(=O)Nc2ccccn2)=C(O)c2ccccc2S1(=O)=O (library stock concentration (final ~1000-fold dilution): 10 mM),IRF Lucia reporter activity,RAW-Dual [1]; [4],0.98
same,IRF Lucia reporter activity,RAW-Dual [1]; agonist: LPS (TLR4) 0.1 ug/mL,0.878
COc1c(C)c2c(c(O)c1C/C=C(\C)CCC(=O)OCCN1CCOCC1)C(=O)OC2 (library stock concentration (final ~1000-fold dilution): 10 mM),IRF Lucia reporter activity,RAW-Dual [3]; [4],0.449
same,IRF Lucia reporter activity,RAW-Dual [3]; agonist: LPS (TLR4) 0.1 ug/mL,0.922
COc1c(C)c2c(c(O)c1C/C=C(\C)CCC(=O)OCCN1CCOCC1)C(=O)OC2,IRF Lucia reporter activity,RAW-Dual [2]; [5],0.79
O=c1oc2cc(O)ccc2c2ccccc12 (library stock concentration (final ~1000-fold dilution): 10 mM),IRF Lucia reporter activity,RAW-Dual [1]; [4],0.337
same,IRF Lucia reporter activity,RAW-Dual [1]; agonist: LPS (TLR4) 0.1 ug/mL,0.758
CC(Oc1ccc(S(C)(=O)=O)cc1C(=O)N1CCN(c2ncc(C(F)(F)F)cc2F)CC1)C(F)(F)F (stereo not given) (library stock concentration (final ~1000-fold dilution): 10 mM),IRF Lucia reporter activity,RAW-Dual [1]; [4],0.991
same,IRF Lucia reporter activity,RAW-Dual [1]; agonist: LPS (TLR4) 0.1 ug/mL,1.1
NCCS (library stock concentration (final ~1000-fold dilution): 10 mM),IRF Lucia reporter activity,RAW-Dual [1]; [4],0.552
same,IRF Lucia reporter activity,RAW-Dual [1]; agonist: LPS (TLR4) 0.1 ug/mL,1.21
Cc1nc(NC(=O)N2CCCC2C(N)=O)sc1-c1csc(C(C)(C)C)n1 (stereo not given) (library stock concentration (final ~1000-fold dilution): 10 mM),IRF Lucia reporter activity,RAW-Dual [1]; [4],0.482
same,IRF Lucia reporter activity,RAW-Dual [1]; agonist: LPS (TLR4) 0.1 ug/mL,1.2
Cc1nc(NC(=O)N2CCCC2C(N)=O)sc1-c1csc(C(C)(C)C)n1 (stereo not given),IRF Lucia reporter activity,RAW-Dual [2]; [6],1.26
CC(=O)Oc1cc2c(s1)CCN(C(C(=O)C1CC1)c1ccccc1F)C2.Cl (stereo not given),IRF Lucia reporter activity,RAW-Dual [2]; [6],0.833
CC(=O)Oc1cc2c(s1)CCN(C(C(=O)C1CC1)c1ccccc1F)C2.Cl (stereo not given) (library stock concentration (final ~1000-fold dilution): 10 mM),IRF Lucia reporter activity,RAW-Dual [1]; [4],0.923
same,IRF Lucia reporter activity,RAW-Dual [1]; agonist: LPS (TLR4) 0.1 ug/mL,1.05

# Source: the supplement of paper PMC10037445
